In the supplement of paper PMC10681739:
± gives the standard deviation of the averaged measurements. In all, about 4,100 sequences were measured (“arbitrary fluorescence units”: median about 780, highest 2% from about 22,000 on). The list shows a part of the results.

The sequences below were run against T1, ETS1 (UniProt P14921) (assay: ETS1 binding intensity (PBM fluorescence), ETS1 alone (arbitrary fluorescence units); higher = stronger binding). Conditions: ETS1 concentration 1 nM; RUNX1 concentration 0 nM.
T1 sequence: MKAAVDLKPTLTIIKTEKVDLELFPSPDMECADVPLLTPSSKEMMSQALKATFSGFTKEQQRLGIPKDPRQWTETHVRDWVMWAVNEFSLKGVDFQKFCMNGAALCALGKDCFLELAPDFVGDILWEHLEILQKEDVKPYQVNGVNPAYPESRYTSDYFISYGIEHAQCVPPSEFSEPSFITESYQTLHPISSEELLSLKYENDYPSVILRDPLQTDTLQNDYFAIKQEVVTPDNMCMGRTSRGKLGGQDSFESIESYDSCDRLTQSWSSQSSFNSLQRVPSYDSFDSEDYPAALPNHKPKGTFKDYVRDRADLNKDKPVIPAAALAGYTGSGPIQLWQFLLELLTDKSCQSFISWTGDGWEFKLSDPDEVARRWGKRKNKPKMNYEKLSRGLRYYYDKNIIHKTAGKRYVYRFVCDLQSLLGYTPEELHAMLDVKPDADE
In short: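 Full-length recombinant human ETS1 (1 nM, no RUNX1) was incubated, per standard PBM protocols, on double-stranded Agilent 4 × 180k arrays of 36-bp genomic probes whose RUNX1 partner site was mutated. Bound ETS1 was detected with anti-ETS1 antibody (Cell Signaling Technology 14069) and Alexa488-conjugated secondary antibody, then scanned on a GenePix 4400A. Binding level is spot fluorescence intensity, summarised over replicate spots (four printed per sequence) and not normalised.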
For TGTCGGGCTCCGGGGGCGGGGAAGTGGCGGCTGAAG, the ETS1 binding intensity was 810. Work on GTGACGTGGCTGTAGGTCTCATTTCCTGCACGGCCT yielded an ETS1 binding intensity of 2060. Sequence CAAATCCACTTGGCAGCTGAGTCAACATCCTGCCTG has an ETS1 binding intensity of 1650. Work on GCTCCAACCGGCGCACTTTCGGAGAACGGGAAGGGG yielded an ETS1 binding intensity of 412. Sequence TTTTCTCTAAACTACATCAAAACCAGGAAACCAGTC has an ETS1 binding intensity of 650. GTTCCTGGTTTGTAGTTATGATTTCCTGTTTGCCTT gave an ETS1 binding intensity of 3820. For GCTGGCGGCGGAGGTCCTGTGGAGCTTCCTCTTCGG, the ETS1 binding intensity was 360. TGACATTTCCGGCCCCACCTCGGCCTGCAGCGCCGC was tested, and the ETS1 binding intensity was 40200. TGTGTAAGAGGAAACACCAAAACTACAAATATGAAA gave an ETS1 binding intensity of 702. In the case of CGGGCTCTCCAGGAAGGTGGCTGCGCCGACAAAATG, the ETS1 binding intensity is reported as 316. For CCCGGCTGAGGGCCCAGGAACTACATTTCCTAGAAG, the ETS1 binding intensity was 389. Sequence CCCCCAGCGGCCAGGAGCAGTCCGGAAGTCGCAGCC has an ETS1 binding intensity of 1820 ± 140. For CAGTCAGACGGAAGCCCGGCTTCTGAGGTGCCTGCC, the ETS1 binding intensity was 789. Work on AAGGCAAACAGGAAATCATAACTACAAACCAGGAAC yielded an ETS1 binding intensity of 7790. Work on TATAATTTACGGCTGGGTGTTTCCTGTTTTTTTGCA yielded an ETS1 binding intensity of 1540. In the case of CTTCCTATGAAAAGCACTTTCCTTCCTACCAAAACC, the ETS1 binding intensity is reported as 503. AAGTTCTTCCGGGTCTGCAGTCTCTGGTGTGTTTGC was tested, and the ETS1 binding intensity was 5300. For GAGTGGCTGTTGTCTCGGGCGGATGGGGAGAAGAGA, the ETS1 binding intensity was 521. In the case of GGTCTGAGCGGAGGAGGGAAGCAGACAGGAAGTGGG, the ETS1 binding intensity is reported as 3130. With AGCGCGAGGCCGCTGAGGGGAGTGACCGGAAGTGGC the ETS1 binding intensity was 7150. For TCTGTTTTGTGAGTTCCCTGCCCCCCTTCCGCCTTT, the ETS1 binding intensity was 517. For GTGCTGAGCAGCTTCCCGTCTGCGCTGAAGACAGCC, the ETS1 binding intensity was 2450. Sequence GCAGTCCTGAGGTGAGTATTTATTTCCTGCTGTTCT has an ETS1 binding intensity of 786. Sequence TTCTTGTTTCCTGTCAAGGGAGGCTCTGAGCACCTC has an ETS1 binding intensity of 11500. For GGCTGCGACTTCCGGACTGCTCCTGGCCGCTGGGGG, the ETS1 binding intensity was 22900 ± 1200. TCAAAGTAAAAGCTCAGTGTTTCCGTGTTCTAAGCA showed an ETS1 binding intensity of 679. GACTCGCTCTTCGGCCCCACGCAGGAAGCCTCCTTG showed an ETS1 binding intensity of 354. With GCTCGGGGTGCCTCTGGGTCAGGTGAGACGGACGTG the ETS1 binding intensity was 341. TGCGCCGGAAGTGCATGAGCTGCCGATGAGGTGCTT showed an ETS1 binding intensity of 8970. Sequence TCCCCTTTCCGGGAAGGGTTGGGGATCTGAGCACGT has an ETS1 binding intensity of 3420. TCTCCCGGAACTGCTCCTTCACCATGATGACGGCTG gave an ETS1 binding intensity of 650. CGTGTTTTGGGGCTGTGTTCTGTCCGGTCAGTTGTT was tested, and the ETS1 binding intensity was 600 ± 82. ACAGGAAGAGATATTATATCTCCCTGGGGTTGGTTT showed an ETS1 binding intensity of 537. Work on TACGCAGCCTACAAGCCCGACAGGATGTCATGAATA yielded an ETS1 binding intensity of 962. Work on TGATGTGCTCATAACACCCTCCCCTCAGCTTCCTTA yielded an ETS1 binding intensity of 355.
